Structures are written as SMILES. pKi: −log10 of the molar value.

The first assay concerns the target isolated recombinant JAK1 kinase domain (Homo sapiens (Human), UniProt P23458). Particulars: read-out: JAK1 Ki.
Turning to `CSc1ccc(C2(CO)CCN(c3cccn4nc(Nc5ccc(C(=O)N(C)C6CCN(C)CC6)cc5)nc34)CC2)cc1` [Example 1-251, 4-([8-[4-(hydroxymethyl)-4-[4-(methylsulfanyl)phenyl]piperidin-1-yl]-[1,2,4]triazolo[1,5-a]pyridin-2-yl]amino)-N-methyl-N-(1-methylpiperidin-4-yl)benzamide], the pKi is 9.21.
For `CN1CCC(N(C)C(=O)c2ccc(Nc3nc4c(N5CCC(CO)(c6ccc(C(F)F)cc6)CC5)cccn4n3)cc2)CC1` [Example 1-267, 4-[(8-[4-[4-(difluoromethyl)phenyl]-4-(hydroxymethyl)piperidin-1-yl]-[1,2,4]triazolo[1,5-a]pyridin-2-yl)amino]-N-methyl-N-(1-methylpiperidin-4-yl)benzamide], the pKi is 9.38.

Still in this assay, the particulars now being: read-out: JAK1 Ki; isolated recombinant JAK1 kinase domain, 25 μM ATP.
As for `O=C(c1ccc(Nc2nc3c(N4CCC(O)(c5ccc(Cl)cc5)CC4)cccn3n2)cc1)N1CCC2(CC1)CNCCO2` [Example 1-230, [4-[[8-[4-(4-chlorophenyl)-4-hydroxy-1-piperidyl]-[1,2,4]triazolo[1,5-a]pyridin-2-yl]amino]phenyl]-(1-oxa-4,9-diazaspiro[5.5]undecan-9-yl)methanone], the pKi was 8.58.
As to `O=C(c1ccc(Nc2nc3c(N4CCC(O)(c5ccc(Cl)cc5)CC4)cccn3n2)cc1)N1CCOC2(CCNCC2)C1` [Example 1-231, [4-[[8-[4-(4-chlorophenyl)-4-hydroxy-1-piperidyl]-[1,2,4]triazolo[1,5-a]pyridin-2-yl]amino]phenyl]-(1-oxa-4,9-diazaspiro[5.5]undecan-4-yl)methanone], the negative-log Ki (pKi) was 8.75.
As to `O=C(c1ccc(Nc2nc3c(N4CCC(O)(c5ccc(Cl)cc5)CC4)cccn3n2)cc1)N1CCCC12CCCNC2` (stereo not shown) [Example 1-233, [4-[[8-[4-(4-chlorophenyl)-4-hydroxy-1-piperidyl]-[1,2,4]triazolo[1,5-a]pyridin-2-yl]amino]phenyl]-(1,9-diazaspiro[4.5]decan-1-yl)methanone], the negative-log Ki (pKi) was 8.59.
In the case of `O=C(c1ccc(Nc2nc3c(N4CCC(O)(c5ccc(Cl)cc5)CC4)cccn3n2)cc1)N1C[C@@H]2CCN[C@@H]2C1` [Example 1-234], the pKi was 8.71.
Regarding `O=C(c1ccc(Nc2nc3c(N4CCC(O)(c5ccc(Cl)cc5)CC4)cccn3n2)cc1)N1C[C@H]2CNC[C@H]2C1` [Example 1-235, [(3aR,6aS)-2,3,3a,4,6,6a-hexahydro-1H-pyrrolo[3,4-c]pyrrol-5-yl]-[4-[[8-[4-(4-chlorophenyl)-4-hydroxy-1-piperidyl]-[1,2,4]triazolo[1,5-a]pyridin-2-yl]amino]phenyl] methanone], the pKi is 8.73.
On to `O=C(c1ccc(Nc2nc3c(N4CCC(O)(c5ccc(Cl)cc5)CC4)cccn3n2)cc1)N1CCC2(CCN2)CC1` [Example 1-236, [4-[[8-[4-(4-chlorophenyl)-4-hydroxy-1-piperidyl]-[1,2,4]triazolo[1,5-a]pyridin-2-yl]amino]phenyl]-(1,7-diazaspiro[3.5]nonan-7-yl)methanone], for which the pKi was 8.59.
The same measure, in the same setting: the figure for `O=C(N[C@H]1[C@@H]2CNC[C@@H]21)c1ccc(Nc2nc3c(N4CCC(O)(c5ccc(Cl)cc5)CC4)cccn3n2)cc1` [Example 1-238, N-[(1R,5S)-3-azabicyclo[3.1.0]hexan-6-yl]-4-[[8-[4-(4-chlorophenyl)-4-hydroxy-1-piperidyl]-[1,2,4]triazolo[1,5-a]pyridin-2-yl]amino]benzamide] is 8.76.
Turning to `O=C(c1ccc(Nc2nc3c(N4CCC(O)(c5ccc(Cl)cc5)CC4)cccn3n2)cc1)N1CC2CNCC(C1)O2` [Example 1-239, [4-[[8-[4-(4-chlorophenyl)-4-hydroxy-1-piperidyl]-[1,2,4]triazolo[1,5-a]pyridin-2-yl]amino]phenyl]-(9-oxa-3,7-diazabicyclo[3.3.1]nonan-3-yl)methanone], the pKi was 8.45.
Still for that read-out and setting: in the case of `NCC12CC(CN1C(=O)c1ccc(Nc3nc4c(N5CCC(O)(c6ccc(Cl)cc6)CC5)cccn4n3)cc1)C2` [Example 1-240] it was 8.43; in that of `O=C(c1ccc(Nc2nc3c(N4CCC(O)(c5ccc(Cl)cc5)CC4)cccn3n2)cc1)N1CC[C@H]2CNC[C@H]21` [Example 1-241, [(3aS,6aS)-3,3a,4,5,6,6a-hexahydro-2H-pyrrolo[2,3-c]pyrrol-1-yl]-[4-[[8-[4-(4-chlorophenyl)-4-hydroxy-1-piperidyl]-[1,2,4]triazolo[1,5-a]pyridin-2-yl]amino]phenyl] methanone], 8.79; in that of `O=C(c1ccc(Nc2nc3c(N4CCC(O)(c5ccc(Cl)cc5)CC4)cccn3n2)cc1)N1CCO[C@@H]2CNC[C@H]21` [Example 1-242, [(4aR,7aR)-3,4a,5,6,7,7a-hexahydro-2H-pyrrolo[3,4-b][1,4]oxazin-4-yl]-[4-[[8-[4-(4-chlorophenyl)-4-hydroxy-1-piperidyl]-[1,2,4]triazolo[1,5-a]pyridin-2-yl]amino]phenyl] methanone], 8.60.
On to `O=C(c1ccc(Nc2nc3c(N4CCC(O)(c5ccc(Cl)cc5)CC4)cccn3n2)cc1)N1CCO[C@@H]2CNC[C@@H]21` [Example 1-243, [(4aS,7aR)-3,4a,5,6,7,7a-hexahydro-2H-pyrrolo[3,4-b][1,4]oxazin-4-yl]-[4-[[8-[4-(4-chlorophenyl)-4-hydroxy-1-piperidyl]-[1,2,4]triazolo[1,5-a]pyridin-2-yl]amino]phenyl] methanone], for which the negative-log Ki (pKi) is 8.60.
Take `O=C(c1ccc(Nc2nc3c(N4CCC(O)(c5ccc(Cl)cc5)CC4)cccn3n2)cc1)N1CCOC2CCNCC21` (stereo not shown) [Example 1-244, 2,3,4a,5,6,7,8,8a-octahydropyrido[4,3-b][1,4]oxazin-4-yl[4-[[8-[4-(4-chlorophenyl)-4-hydroxy-1-piperidyl]-[1,2,4]triazolo[1,5-a]pyridin-2-yl]amino]phenyl] methanone]: the pKi is 8.57.
Regarding `O=C(NCC1CCC2(CCNCC2)CO1)c1ccc(Nc2nc3c(N4CCC(O)(c5ccc(Cl)cc5)CC4)cccn3n2)cc1` (stereo not shown) [Example 1-245, 4-[[8-[4-(4-chlorophenyl)-4-hydroxy-1-piperidyl]-[1,2,4]triazolo[1,5-a]pyridin-2-yl]amino]-N-(2-oxa-9-azaspiro[5.5]undecan-3-ylmethyl)benzamide], the pKi is 8.58.
Regarding `CN1CCC(N(C)C(=O)c2ccc(Nc3nc4c(N5CCC(CCC#N)(c6ccc(Cl)cc6)CC5)cccn4n3)cc2)CC1` [Example 1-247, 4-{8-[4-(4-Chloro-phenyl)-4-(2-cyano-ethyl)-piperidin-1-yl]-1,8a-dihydro[1,2,4]triazolo[1,5-a]pyridine-2-ylamino}-N-methyl-N-(1-methyl-piperidin-4-yl)-benzamide], the negative logarithm of the Ki (pKi) was 9.30.
On to `CO/N=C/C1(c2ccc(Cl)cc2)CCN(c2cccn3nc(Nc4ccc(C(=O)N(C)C5CCN(C)CC5)cc4)nc23)CC1` [Example 1-250], for which the pKi was 8.41.
`CCOC(=O)CC1(c2ccc(Cl)cc2)CCN(c2cccn3nc(Nc4ccc(C(=O)N(C)C5CCN(C)CC5)cc4)nc23)CC1` [Example 1-254]: the pKi was 9.19.
For `CN1CCC(N(C)C(=O)c2ccc(Nc3nc4c(N5CCC(CC(F)F)(c6ccc(Cl)cc6)CC5)cccn4n3)cc2)CC1` [Example 1-256, 4-([8-[4-(4-chlorophenyl)-4-(2,2-difluoroethyl)piperidin-1-yl]-[1,2,4]triazolo[1,5-a]pyridin-2-yl]amino)-N-methyl-N-(1-methylpiperidin-4-yl)benzamide], the pKi was 8.93.
The same measure, in the same setting: in the case of `CN1CCC(N(C)C(=O)c2ccc(Nc3nc4c(N5CCC(CC#N)(C6CCCC6)CC5)cccn4n3)cc2)CC1` [Example 1-257, 4-([8-[4-(cyanomethyl)-4-cyclopentylpiperidin-1-yl]-[1,2,4]triazolo[1,5-a]pyridin-2-yl]amino)-N-methyl-N-(1-methylpiperidin-4-yl)benzamide] it was 7.57.
Consider `CN1CCC(N(C)C(=O)c2ccc(Nc3nc4c(N5CCC(C)(C(=O)NCc6ccccc6)CC5)cccn4n3)cc2)CC1` [Example 1-259, N-benzyl-4-methyl-1-[2-[4-[methyl-(1-methyl-4-piperidyl)carbamoyl]anilino]-[1,2,4]triazolo[1,5-a]pyridin-8-yl]piperidine-4-carboxamide], for which the pKi is 7.58.
Regarding `CC(=O)NC1(C)CCN(c2cccn3nc(Nc4ccc(C(=O)N(C)C5CCN(C)CC5)cc4)nc23)CC1` [Example 1-260, 4-[[8-(4-acetamido-4-methylpiperidin-1-yl)-[1,2,4]-triazolo[1,5-a]pyridin-2-yl]amino]-N-methyl-N-(1-methylpiperidin-4-yl)benzamide], the negative-log Ki (pKi) is 6.98.
For the compound `CN1CCC(N(C)C(=O)c2ccc(Nc3nc4c(N5CCC(C)(N(C)S(=O)(=O)c6ccccc6)CC5)cccn4n3)cc2)CC1` [Example 1-261], the negative logarithm of the Ki (pKi) is 7.38.
Regarding `CN1CCC(N(C)C(=O)c2ccc(Nc3nc4c(Oc5ccc6oc(=O)n(Cc7ccccc7)c6c5)cccn4n3)cc2)CC1` [Example 1-264, 4-([8-[(3-benzyl-2-oxo-2,3-dihydro-1,3-benzoxazol-5-yl)oxy]-[1,2,4]triazolo[1,5-a]pyridin-2-yl]amino)-N-methyl-N-(1-methylpiperidin-4-yl)benzamide], the pKi was 6.87.
Regarding `CN1CCC(N(C)C(=O)c2ccc(Nc3nc4c(N5CCC(CN)(c6ccc(Cl)cc6)CC5)cccn4n3)cc2)CC1` [Example 1-265, 4-([8-[4-(aminomethyl)-4-(4-chlorophenyl)piperidin-1-yl]-[1,2,4]triazolo[1,5-a]-pyridin-2-yl]amino)-N-methyl-N-(1-methylpiperidin-4-yl)benzamide], the negative logarithm of the Ki (pKi) is 9.08.
With `CN1CCC(N(C)C(=O)c2ccc(Nc3nc4c(N5CCC(CO)(CNCC(F)(F)F)CC5)cccn4n3)cc2)CC1` [Example 1-266, 4-([8-[4-(hydroxymethyl)-4-[[(2,2,2-trifluoroethyl)amino]methyl]piperidin-1-yl]-[1,2,4]triazolo[1,5-a]pyridin-2-yl]amino)-N-methyl-N-(1-methylpiperidin-4-yl)benzamide], the pKi was 8.06.
The same measure, in the same setting: in the case of `CC(=O)NCC1(c2ccc(Cl)cc2)CCN(c2cccn3nc(Nc4ccc(C(=O)N(C)C5CCN(C)CC5)cc4)nc23)CC1` [Example 1-268, 4-([8-[4-(4-chlorophenyl)-4-(acetamidomethyl)piperidin-1-yl]-[1,2,4]triazolo[1,5-a]pyridin-2-yl]amino)-N-methyl-N-(1-methylpiperidin-4-yl)benzamide] it was 9.15.

The term pKi denotes the Ki on a negative log10 scale, so that one unit is a factor of ten.

The values are drawn from patent US9873709B2 (priority 2013, dated 2018).
